Data as given in ChEMBL document CHEMBL1201862, “PubChem BioAssay data set” (2004).
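Results reflect a 48-hour exposure of cells in 96-well plates to compound at five concentrations. GI50: concentration for 50% inhibition of growth.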 Calls of active or inactive are those of the source. Rule as the data show it: active = GI50 up to about 1.1 µM and inactive = higher.

Each compound was assayed on NCI-H322M (assay: NCI tumour cell line growth inhibition, 48 h).

Compound | GI50
O=C(/C=C/c1ccc(OCC(=O)N2CCN(c3ccccc3)CC2)cc1)c1ccccc1 | inactive: 39 µM
COc1ccc(CC2NC(=O)/C=C/CC(C(C)C3OC3c3ccccc3)OC(=O)C(CC(C)C)OC(=O)C(C)CNC2=O)cc1Cl (configuration not stated) | active: 3.78e-05 µM
CC(C)=NN/C(=N\c1ccc(Cl)cc1)NS(=O)(=O)c1cc2ccccc2s1 | inactive: 58.6 µM
NC1CC(=O)c2ccccc21 (configuration not stated) | inactive: > 100 µM
Cc1cc(=O)oc2cc3oc(N(C)c4ccccc4)nc(=O)c3cc12 | inactive: > 100 µM
O=C1c2ccccc2C(=O)c2c1ccc1nc3c(nc21)-c1c2ccccc2cc2cccc-3c12 | inactive: > 86.7 µM
CN(CC(=O)O)S(=O)(=O)c1ccc(Cl)cc1 | inactive: > 100 µM
CC(C)(O)CO/N=C1\C(=C2\C(=O)Nc3ccccc32)Nc2ccccc21 | inactive: 1.42 µM
O=C(c1ccc(Cl)cc1)c1ccc(OCCCOc2ccc(C(=O)c3ccc(Cl)cc3)cc2Cl)c(Cl)c1 | inactive: > 100 µM
Nc1c(Cl)ncnc1N[C@@H]1C[C@H]1CO | inactive: > 100 µM
O=C1OC(/C=C/c2ccccc2)C(=O)C1=O (configuration not stated) | inactive: > 100 µM
N#Cc1ccc(Nc2nc3[nH]cnc3c(=O)[nH]2)cc1 | inactive: > 100 µM
CCN1C(=O)c2ccccc2C1(O)c1ccc(Cl)cc1 (configuration not stated) | inactive: 34.4 µM
Clc1cccc(-c2nc3cccc4c3n2Cc2ncccc2-4)c1 | inactive: > 100 µM
COc1ccc(/C=C(\C2=NC(=O)CS2)c2nc3ccccc3[nH]2)cc1 | inactive: 45.2 µM
C/C(=N/NC(=S)N(Cc1ccccn1)Cc1ccccn1)c1cnccn1 | active: 0.258 µM
N#CC1=C(Cl)NC(Cl)=C(C#N)C1c1c(Cl)cccc1Cl | inactive: > 100 µM
COc1ccc2cc(/C=N/NC(=O)Nc3ccccc3)ccc2c1 | inactive: > 100 µM
N#Cc1ccc(Oc2nc3ccc(C(F)(F)F)cc3nc2-c2ccccc2)cc1 | inactive: 17.6 µM
N=C(c1cccs1)C1(N2CCCCC2)CCCCC1 | inactive: 23.8 µM
Cc1cc(O)nc(NNC(C#N)c2ccco2)n1 (configuration not stated) | inactive: > 100 µM

Compound | GI50
Cc1ccc(/N=N/C(=NNC(=O)c2ccc(C)cc2)c2ccc(N(C)C)cc2)cc1 | inactive: 29.9 µM
CCN(CC)c1nc(N(C)C)c2cc(OC)ccc2n1 | inactive: 24.8 µM
CCCn1c(SCCSc2c3ccccc3c(-c3nc(F)nc(F)n3)n2CCC)c2ccccc2c1-c1nc(F)nc(F)n1 | inactive: > 100 µM
CC(=O)O[C@H]1CCC2[C@@H]3CCC4c5nonc5CC[C@]4(C)C3CC[C@@]21C (some centres not stated) | inactive: > 10 µM
Cc1csc2nc(-c3cc([N+](=O)[O-])c(Cl)cc3Cl)c(/C=N/N=C(N)N)n12 | inactive: 15 µM
Cc1cccc(NC2=NC(=O)C(CC(=O)Nc3ccc(Cl)cc3C)S2)c1 (configuration not stated) | inactive: > 100 µM
CC1=NC2(C(=O)O)C3(C(=O)O)N=C(C)OC3(C(F)(F)F)C2(C(F)(F)F)O1 (configuration not stated) | inactive: > 100 µM
Cc1cc2c(=O)cc(-c3ccc(Cl)c(Cl)c3)oc2c(C(=O)O)c1C | inactive: > 100 µM
CCOc1ccc(NC(=O)/C(Cc2nc3ccccc3nc2O)=N\O)cc1 | inactive: > 100 µM
O=C(NCCc1ccccc1)[C@H]1CCCC[C@@H]1CCO | inactive: > 100 µM
c1ccc(-c2cc(-c3cc(-c4ccccc4)[nH]n3)[nH]n2)cc1 | inactive: > 100 µM
CC(C)(C)C1CCC2(CC1)c1[nH]c3ccccc3c1C1(CCC(C(C)(C)C)CC1)c1[nH]c3ccccc3c12 (configuration not stated) | inactive: > 100 µM
O=S(=O)(O)c1ccc2c(/N=N/c3ccccc3)c(O)ccc2c1 | inactive: > 100 µM
Nc1ccc(/N=N/c2ccc(-c3ccc(/N=N/c4c(S(=O)(=O)O)cc5cc(S(=O)(=O)O)c(/N=N/c6ccc([N+](=O)[O-])cc6)c(N)c5c4O)cc3)cc2)c2cc(S(=O)(=O)O)ccc12 | inactive: > 100 µM
COC1=CC(=O)c2c(O)c3c(c(O)c2C1=O)C[C@](C)(O)C[C@@H]3O | inactive: 2.9 µM
C[C@@H]1[C@@H]2[C@@H](C=C3C4CCC5Cc6nc7c(nc6C[C@@]5(C)C4C[C@H](O)[C@]32CO)CC2CCC3C4=C[C@H]5O[C@@]6(OC(C)(CO)C[C@@H]6O)[C@H](C)[C@@]5(O)[C@]4(C)[C@@H](O)CC3[C@]2(C)C7)O[C@]12CCC(C)(C)O2 (some centres not stated) | active: 0.608 µM
CSc1ccc2c(cc1=O)C(NC(=O)c1cc(O)c(OC(=O)O)c(O)c1)CCc1cc(O)c(O)c(O)c1-2 (configuration not stated) | inactive: > 8.99 µM
COc1ccc(-c2cc(=O)c3cc(O)ccc3o2)c(OC)c1OC | inactive: 48.3 µM
CC1(C)CC2=NC(SSC3=C(C#N)C(c4ccc(Br)cc4)C4=C(O)CC(C)(C)CC4=N3)=C(C#N)C(c3ccc(Br)cc3)C2=C(O)C1 (configuration not stated) | inactive: > 100 µM
Cc1cc(N)c2ccccc2[n+]1CCCCCCCCCCNc1cc(C)[n+](CCCCCCCCCC[n+]2c(C)cc(N)c3ccccc32)c2ccccc12 | inactive: 1.98 µM
O=C(O)CCC(C(=O)O)N1C(=O)c2ccccc2C1=O (configuration not stated) | inactive: > 100 µM
